“And” between values parts separate entries of the source, which are not always exact repeats. Equal values may be shown once. This list was built around the results that the source calls inconclusive (neither active nor inactive); the mix of calls is not that of the screen. Potencies beside an inconclusive call are fits to weak or partial responses and may not hold up. Where a structure was tested more than once in an assay, its records may differ in their call. The source made the active and inactive calls. The call rests on the fitted dose curve; in most records, active means well fitted activation curve with a large enough effect in the repeat runs; inconclusive means weak or mixed curves; inactive means flat fitted curve, though single readings scatter.
Assay: A CellTox Green Cytotoxicity Assay to monitor cytotoxicity in HepG2 cells - 32 hour (AID 1224883); further: nearly all actives have a fitted effect of over 50% in size
Conditions: CellTox Green fluorescence; series mostly up to 76.8 µM; cytotoxicity increase: at the top concentration
Procedure, shortened: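 Read-out is fluorescence of a cyanine dye excluded from live cells that stains DNA of dead HepG2 cells, with signal proportional to cytotoxicity. Plates were read at 0, 8, 16, 24, 32 and 40 h after compound addition.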
Potency means the concentration at half of the fitted maximal effect; tags describe the fitted curve by direction and shape.

Structure (SMILES) | Potency
CCCCC/C(C=O)=C\c1ccccc1 | inconclusive: 54.9 µM [activator, single point]
Cc1cc(Nc2ccc(O)cc2)ccc1N | inconclusive: 61.4 µM [activator, single point]
N#CSCSc1nc2ccccc2s1 | active: 24.5 µM
CCCCCCCCOC(=O)c1cc(O)c(O)c(O)c1 | active: 43.6 µM
CC(C)OC(=O)C(C)(C)Oc1ccc(C(=O)c2ccc(Cl)cc2)cc1 | inconclusive: 15.5 µM [activator, partial curve]
CC1=C(/C=C/C(C)=C/C=C/C(C)=C/C(=O)Nc2ccc(O)cc2)C(C)(C)CCC1 | active: 50.2 µM and active: 26.8 µM

Assay: A CellTox Green Cytotoxicity Assay to monitor cytotoxicity in HEK293 cells - 8 hour (AID 1224884); further: nearly all actives have a fitted effect of over 35% in size; on cytotoxicity increase: on the % scale 0 is the no-effect control and ±100 the full control effect
Conditions: CellTox Green fluorescence; series mostly up to 76.8 µM; cytotoxicity increase: at the top concentration
Procedure, shortened: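 Nonlytic real-time cytotoxicity: HEK293 + CellTox Green reagent plated, 5 h preincubation, pintool compound addition (23 nL in DMSO), 37 C for 40 h, fluorescence measured at successive time points.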

Structure (SMILES) | Potency | cytotoxicity increase
CC=O | active: 57.5 µM | –
CCN(CC)CCOc1ccc(/C(=C(\Cl)c2ccccc2)c2ccccc2)cc1 | active: 39.7 µM | –
Cc1cc2c(C(C)C)c(O)c(O)c(C=O)c2c(O)c1-c1c(C)cc2c(C(C)C)c(O)c(O)c(C=O)c2c1O | inconclusive: 21.3 µM [activator, single point] | –
CN(C)C(=S)SC(=S)N(C)C | inconclusive: 20 µM [activator, single point] | –
O=C(NO)c1ccccc1 | inconclusive: 52.3 µM [activator, single point] | –
O=S1(=O)CC(Cl)(Cl)C(Cl)(Cl)C1 | inconclusive: 54.9 µM [activator, single point] | –
CCc1cc(SCc2sc(-c3ccc(C(F)(F)F)cc3)nc2CN2CCN(c3ccc(OC)cc3)CC2)ccc1OCC(=O)O | – | inactive: 0.732%
CCC(C)Nc1ccc(NC(C)CC)cc1 (stereo unspecified) | inconclusive: 62.8 µM [activator, single point] | –
O=C(N[C@H](CO)[C@H](O)c1ccc([N+](=O)[O-])cc1)C(Cl)Cl | – | inactive: 5.57%
Cc1cc(O)c2ccccc2c1O | active: 9.52 µM | –
CSc1ccc2c(c1)N(CCC1CCCCN1C)c1ccccc1S2 (stereo unspecified) | active: 34.5 µM and inconclusive: 26.8 µM [activator, single point] | –
CCCCCCCCCCn1cc[n+](CCCCCCCCCC)c1C | active: 19.5 µM | –
O=C1Cc2cc(CCN3CCN(c4nsc5ccccc45)CC3)c(Cl)cc2N1 | inconclusive: 26.8 µM [activator, single point] | –
CCCCCCCCCCCCN(CCO)CCO | inconclusive: 30.8 µM [activator, partial curve, poor fit] | –
NC(=O)C1(N2CCCCC2)CCN(CCCN2c3ccccc3CCc3ccc(Cl)cc32)CC1 | inconclusive: 26.8 µM [activator, single point] | –
CCCCCCCCOC(=O)c1ccc(O)cc1 | inconclusive: 54.8 µM [activator, partial curve, poor fit] and inconclusive: 43.6 µM [activator, partial curve] | –
CC/C(=C(\c1ccc(O)cc1)c1ccc(OCCN(C)C)cc1)c1ccccc1 | inconclusive: 61.8 µM [activator, single point] | –
O=c1n(CCO)c(=O)n(CCO)c(=O)n1CCO | active: 43.6 µM | –
O=C1C=CC(=O)N1c1ccc(Cc2ccc(N3C(=O)C=CC3=O)cc2)cc1 | active: 54.9 µM | –
CCCCCCCCCCCCCCCCCC[N+](C)(C)C | active: 39 µM | –
CCCCC(CC)CN1CN(CC(CC)CCCC)CC(C)(N)C1 (stereo unspecified) | active: 15.1 µM | –
CCCCCCOc1cc(C)c(O)c(C)c1C | inconclusive: 39.4 µM [activator, partial curve, poor fit] | –
C=C1C(C)(C)[C@@]2(Cl)C(Cl)[C@]1(Cl)C(Cl)(Cl)C2(Cl)Cl (stereo partly specified) | inconclusive: 53.9 µM [activator, single point] | –
Clc1ccccc1C(c1ccccc1)(c1ccccc1)n1ccnc1 | inconclusive: 54.9 µM [activator, single point] | –
CN(C)c1ccc(C(=C2C=CC(=[N+](C)C)C=C2)c2ccccc2)cc1 | inconclusive: 55 µM [activator, single point] | –
Clc1ccc2c(c1)C(N1CCNCC1)=Nc1ccccc1O2 | inconclusive: 61.6 µM [activator, single point] | –
C#C[C@]1(O)CC[C@H]2[C@@H]3CCC4=CC(=O)CC[C@@H]4[C@H]3CC[C@@]21CC | inconclusive: 43.7 µM [activator, partial curve, poor fit] | –
CC(O)(c1ccc(Cl)cc1)c1ccc(Cl)cc1 | inconclusive: 61.6 µM [activator, partial curve, poor fit] | –
C[C@]12CC[C@@H]3c4ccc(O)cc4CC[C@H]3[C@@H]1CCC2=O | inconclusive: 55 µM [activator, single point] | –
CC[C@H](C)C(=O)O[C@H]1C[C@@H](C)C=C2C=C[C@H](C)[C@H](CC[C@@H]3C[C@@H](O)CC(=O)O3)[C@H]21 | inconclusive: 62.5 µM [activator, single point] | –

From PubChem BioAssay (Tox21)
